From the antibiotic and cytotoxicity screens of Wong et al. (2023) come the findings set out here.

The other results are listed elsewhere or left out.

This test concerns S. aureus RN4220. As to the kind of experiment: growth inhibition call (relative growth <= 0.2). Particulars: 50 µM.
`CC(C)NC(=O)Nc1ccc2c(c1)C(=O)N(C)[C@H]1CC[C@H](CC(=O)NCc3ccc(F)cc3)O[C@H]1CO2`: the growth inhibition call was “inactive”.
With `COc1ccc(-n2cc(C(=O)NO)nn2)cc1` the entry was “inactive”; with `O=C(C[C@@H]1CC[C@H]2[C@@H](COC[C@H](O)CN2S(=O)(=O)c2ccc(Cl)cc2)O1)NCC1CCCCC1`, “inactive”.
In the case of `COc1ccc2c3c([nH]c2c1)[C@H](CO)N(C[C@]13CCN(CC1)C(=O)c1cnccn1)C(=O)c1cnccn1`, the growth inhibition call is “inactive”.
With `C[C@H](CO)N1C[C@H](C)[C@H](CN(C)Cc2ccc(Oc3ccccc3)cc2)Oc2c(NC(=O)Nc3ccc(F)cc3)cccc2C1=O`, the growth inhibition call was “inactive”.
Next, `CN1C(=O)C[C@@H]2[C@@H]1CCN2C(=O)c1csnn1`: “inactive”; `COC(=O)[C@H](Cc1ccccc1)N1CC2=CCCC=C[C@H]2[C@@H]1[C@@H](O)CCn1cc(-c2ccc(C(=O)NO)s2)nn1`: “inactive”.
Next, `COc1ccc(S(=O)(=O)N(C)C[C@H]2OCCCC[C@H](C)Oc3ccc(NC(=O)C4CCCCC4)cc3C(=O)N([C@@H](C)CO)C[C@H]2C)cc1`: “inactive”; `C[C@H]1CN([C@@H](C)CO)C(=O)c2cccc(NS(=O)(=O)c3ccc(F)cc3)c2O[C@@H]1CN(C)C(=O)Nc1cccc2ccccc12`: “inactive”.
As for `O=C(OCc1ccco1)c1ccc(-c2ccc(Cl)cc2)s1`, the growth inhibition call is “inactive”.
Next, `COc1ccc2c3c(n(c2c1)C)[C@H](CO)N(Cc1cc(cc(c1)OC)OC)C[C@]13CCN(CC1)C(=O)Nc1cccc(c1)F`: “inactive”; `O=S1(=O)CCOCC1`: “inactive”; `C[C@H](CO)N1C[C@H](C)[C@H](CN(C)C(=O)c2ccc3c(c2)OCO3)Oc2ncc(C#Cc3ccccc3F)cc2C1=O`: “inactive”.
